This passage reports binding signal results from paper PMC7819943, “Rice protein-binding microarrays: a tool to detect cis-acting elements near promoter regions in rice”.

Some of the results follow.

The target in this assay is T1, OsWOX13 (Oryza sativa, UniProt Q5QMM3 1-267).
T1 sequence: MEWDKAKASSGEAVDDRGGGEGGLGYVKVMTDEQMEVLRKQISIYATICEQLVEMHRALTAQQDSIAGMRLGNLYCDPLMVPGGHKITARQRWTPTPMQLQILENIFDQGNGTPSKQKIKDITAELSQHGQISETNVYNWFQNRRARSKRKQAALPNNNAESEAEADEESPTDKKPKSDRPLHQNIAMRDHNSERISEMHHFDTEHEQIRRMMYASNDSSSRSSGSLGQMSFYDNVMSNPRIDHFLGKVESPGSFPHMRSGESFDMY
The assay is described as follows: protein-binding microarray (RPBM); PBS, 2% BSA, 51.3 ng/ul salmon testes DNA, 50 uM zinc acetate, 200 nM TF, 25 C, 1 h; high values mean tight binding. As to conditions: protein: recombinant; tags: N-terminal polyhistidine and DsRed monomer fusion (pET32a); label: CyDye5-dUTP incorporated in the synthesized complementary strand; 3' TTTTT single-stranded linker to array surface; dsDNA, one strand shown. In outline: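 Polyhistidine-tagged DsRed fusions of transcription factors, joined at the N-terminus, were expressed in E. coli BL21-CodonPlus and isolated on Ni–NTA. They were incubated at 200 nM for 1 h at 25 °C on a custom Agilent array, double-stranded and BSA-blocked, in PBS with 2% BSA, salmon testes DNA and 50 µM zinc acetate. The binding signal is per-feature fluorescence intensity (arbitrary units) read on an Axon 4000B scanner after washing.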
For the sequence “TTTATTTAAACTCAAATCACGTCGAGATTGTTGGAGAGGCCGGAGTCACCTAGTGCAG”, the binding signal was 5760 fluorescence intensity (a.u.). To “GATTATCAAAATATTAATTAAAATAAAATCGGAGGGAGTACGGAGTCACCTAGTGCAG” belongs 3850 fluorescence intensity (a.u.); to “TAGATACAATTAAAATTAATATAGTTGTGTACCACTGTATCGGAGTCACCTAGTGCAG”, 3560 fluorescence intensity (a.u.); to “TTGATGTGCAATAATTAACGAGAGAAGAGTTTTCCCATAGCGGAGTCACCTAGTGCAG”, 10300 fluorescence intensity (a.u.). “GGTTAATTTCTAGGGTATGGTGATGGTAATGTTGCGGCGACGGAGTCACCTAGTGCAG”: the binding signal is 12800 fluorescence intensity (a.u.). To “AAATAAATGGAAAATACTGGTGATGTGGGGTGGAGTCATCCGGAGTCACCTAGTGCAG” belongs 8520 fluorescence intensity (a.u.); to “TGGGCCGTGATTGAGGCCTATATATACGTGGCCTGACAAACGGAGTCACCTAGTGCAG”, 16200 fluorescence intensity (a.u.); to “ATGTAATTTTCTTCCACGAGACGCTCCAACTGTCCAAGCACGGAGTCACCTAGTGCAG”, 4800 fluorescence intensity (a.u.). With “ATTAGATTGACTATAGATGAATTGAAGACAGTAGTGGGCTCGGAGTCACCTAGTGCAG”, the binding signal is 49500 fluorescence intensity (a.u.). Then “TAAGCCTAATTAATCCGTCATTAGCAAATGTTTGCTATAGCGGAGTCACCTAGTGCAG”, with 9650 fluorescence intensity (a.u.). In the case of “CTATAATTAGATTAATCCGGGCCCACGGGCTTAACCTTCTCGGAGTCACCTAGTGCAG”, the binding signal is 29400 fluorescence intensity (a.u.). Then “ACATTTCTCCCTAATTATCCCCATTCTCCCTGTACTTGCACGGAGTCACCTAGTGCAG”, with 7890 fluorescence intensity (a.u.). To “TAGAATTAGACAACATCATGTGTTTGCATGTAAATTGTTTCGGAGTCACCTAGTGCAG” belongs 3280 fluorescence intensity (a.u.).

With “GTCCCATTAATCTGATAGGATATCCTGTAACATGTTACAACGGAGTCACCTAGTGCAG”, the binding signal is 5620 fluorescence intensity (a.u.). Then “TTAAAAGTTTGATTGAAATTGGAACGATGTGATGGAAAAGCGGAGTCACCTAGTGCAG”, with 22400 fluorescence intensity (a.u.).

In the case of “TTCACCGATTGATTGTCTCCCTGTTAAGCTGTGTTCAAGTCGGAGTCACCTAGTGCAG”, the binding signal is 42900 fluorescence intensity (a.u.). “GCCGTGTAAACTTCAATCTAATTATTCGGACGACAATGACCGGAGTCACCTAGTGCAG”: the binding signal was 12400 fluorescence intensity (a.u.).

“TTGATTGAGATGTGACTGGAAAGGTGTGTCAGTGCAGGCACGGAGTCACCTAGTGCAG”: the binding signal was 56800 fluorescence intensity (a.u.). To “CCATGGATTGGAATGTTGCGTGCACGAAACACATCCGATGCGGAGTCACCTAGTGCAG” belongs 4560 fluorescence intensity (a.u.); to “TATCAAATTTTCAATTTTCACTGTAAGACATGAATTAGAGCGGAGTCACCTAGTGCAG”, 4910 fluorescence intensity (a.u.); to “CCAAATTTCCCAATCCGTCGGCGCTCACCGCCTTCTGTGCCGGAGTCACCTAGTGCAG”, 6020 fluorescence intensity (a.u.). For “GGAGTAGGTACTTTAATTAATTCCGTGACGAGACGACGACCGGAGTCACCTAGTGCAG”, the binding signal was 7070 fluorescence intensity (a.u.). To “CCTCTAATTATAGTGCAAAATAAAACGCTGTGCCTCAATTCGGAGTCACCTAGTGCAG” belongs 17800 fluorescence intensity (a.u.); to “GAAATCTATGCAAATTAGCGTGCGATTAGCGAGGCCACGTCGGAGTCACCTAGTGCAG”, 6150 fluorescence intensity (a.u.).

As to “TAATTAATTAGTAATTAAGAAAGTCGTAGTATCCCGATCGCGGAGTCACCTAGTGCAG”, the binding signal is 51100 fluorescence intensity (a.u.). With “CCTGCTATAAATTTAGTTCTGTTCATAGTGTCTAATGATTCGGAGTCACCTAGTGCAG”, the binding signal is 4180 fluorescence intensity (a.u.). Turning to “TGTTCTCATTCACCTATAGCTGATTTCAGATGAACTCTACCGGAGTCACCTAGTGCAG”, the binding signal was 3690 fluorescence intensity (a.u.). As to “ATTAATAACTGATTCAGTCACAGTCGAAATGCTTGCCTTCCGGAGTCACCTAGTGCAG”, the binding signal was 20400 fluorescence intensity (a.u.). For “TAATTGACATGAACTACTTGTGTAATTGACTTTGTTTAGTCGGAGTCACCTAGTGCAG”, the binding signal was 24700 fluorescence intensity (a.u.). Turning to “AGAGAGAGGAAGCTAATTAATTAAGCTAAGCTAAGCTAGCCGGAGTCACCTAGTGCAG”, the binding signal was 3510 fluorescence intensity (a.u.). For the sequence “TTACATTGTAATTACACTACGATTGTACTATAATTACATCCGGAGTCACCTAGTGCAG”, the binding signal is 8440 fluorescence intensity (a.u.). To “AATAGGATTAGGCAAGGTGATTAGTGGTACATTATGTGCTCGGAGTCACCTAGTGCAG” belongs 7060 fluorescence intensity (a.u.). With “AAATCAATCAATCAAAATTCAAAATATCAAATGGTGATGACGGAGTCACCTAGTGCAG”, the binding signal was 48800 fluorescence intensity (a.u.). “TTCTTCCTTTGATTTGAAAAGTAATCCAAAGGAATGTTTCCGGAGTCACCTAGTGCAG”: the binding signal is 3390 fluorescence intensity (a.u.). Then “GATTAATTAATTAATCTCAATGATGGTAAATACATTCCCACGGAGTCACCTAGTGCAG”, with 63100 fluorescence intensity (a.u.); and “ATTTCATCAATCTCAATTCTCAAGATTTGCTAGCTCAGTTCGGAGTCACCTAGTGCAG”, with 8540 fluorescence intensity (a.u.).

Consider “GGTAGATTGCACTTAGTGGGGATGGCTTGTACAGGCATAGCGGAGTCACCTAGTGCAG”, for which the binding signal was 9640 fluorescence intensity (a.u.). For “ATGGGTAATTTGTTGCAATAGAGTTGTGTGTATGGACACGCGGAGTCACCTAGTGCAG”, the binding signal was 16200 fluorescence intensity (a.u.). Take “ACCTGATTTCATCTCTATATAGAGATAAAGAAGTTGTGTACGGAGTCACCTAGTGCAG”: the binding signal was 6650 fluorescence intensity (a.u.). For the sequence “CGGATAACATGACGGAGGACTGTTATCGTCGTTGGTTGCACGGAGTCACCTAGTGCAG”, the binding signal was 3560 fluorescence intensity (a.u.). On to “TCGAAAATAAATCAATCTCGTACGAAATATGACACATCATCGGAGTCACCTAGTGCAG”, for which the binding signal is 9530 fluorescence intensity (a.u.). Then “TATAGGTAGACGTATTGATTAATTAAAAGAGTTTTCGAAGCGGAGTCACCTAGTGCAG”, with 4420 fluorescence intensity (a.u.).
